# US11180452B2, “Methods and compositions for selectively inhibiting pathogenic microbes” (priority 2019, dated 2021)
# Tested on: Burkholderia cenocepacia NRRL: B-59561
# Assay: microbe, parasite or virus in culture
# Type: cell-based
structure (smiles),measurement,value
"Brc1ccc(Sc2c[nH]c3ccccc23)cc1 [Compound 174U, 3-((4-bromophenyl)thio)-1H-indole]",MIC,> 50 µg/mL
"OCc1[nH]c2ccc(Br)cc2c1Sc1ccccc1Br [Compound 177H, (5-bromo-3-((2-bromophenyl)thio)-1H-indol-2-yl)methanol]",MBC,> 50 µg/mL
same,MIC,25 µg/mL
"Clc1ccc(Sc2c[nH]c3ccc(Br)cc23)cc1Cl [Compound 174W, 5-bromo-3-((3,4-dichlorophenyl)thio)-1H-indole]",MIC,> 50 µg/mL
"COc1ccc2[nH]cc(Sc3ccc(Br)cc3)c2c1 [Compound 172E, 3-((4-bromophenyl)thio)-5-methoxy-1H-indole]",MIC,> 50 µg/mL
"Fc1ccc(Sc2c[nH]c3ccc(Br)cc23)cc1 [Compound 174P, 5-bromo-3-((4-fluorophenyl)thio)-1H-indole]",MIC,> 50 µg/mL
"Cc1c(Sc2ccc(Br)cc2)[nH]c2ccccc12 [Compound 172B, 2-((4-bromophenyl)thio)-3-methyl-1H-indole]",MIC,> 50 µg/mL
"Cc1[nH]c2ccc(O)cc2c1Sc1ccccc1N [Compound 174AK, 3-((2-aminophenyl)thio)-2-methyl-1H-indol-5-ol]",MIC,> 50 µg/mL
"Clc1ccc(Sc2c[nH]c3ccc(Br)cc23)cc1 [Compound 174J, 5-bromo-3-((4-chlorophenyl)thio)-1H-indole]",MIC,> 50 µg/mL
"Nc1ccccc1Sc1c[nH]c2ccc(Br)cc12 [Compound 174M, 2-((5-bromo-1H-indol-3-yl)thio)aniline]",MBC,> 150 µg/mL
same,MIC,150 µg/mL
"Brc1ccc(Sc2c[nH]c3cc(Br)ccc23)cc1 [Compound 174A, 6-bromo-3-((4-bromophenyl)thio)-1H-indole]",MIC,> 50 µg/mL
"Clc1cc(Cl)c(Sc2c[nH]c3ccc(Br)cc23)c(Cl)c1 [Compound 174AG, 5-bromo-3-((2,4,6-trichlorophenyl)thio)-1H-indole]",MIC,> 50 µg/mL
"COc1ccc(Sc2c[nH]c3ccccc23)cc1 [Compound 156O, 3-((4-methoxyphenyl)thio)-1H-indole]",MIC,> 50 µg/mL
"Brc1ccc2[nH]cc(Sc3ccc4ccccc4c3)c2c1 [Compound 174S, 5-bromo-3-(naphthalen-2-ylthio)-1H-indole]",MIC,> 50 µg/mL
"Fc1ccc2[nH]cc(Sc3ccc(Br)cc3)c2c1 [Compound 174E, 3-((4-bromophenyl)thio)-5-fluoro-1H-indole]",MIC,> 50 µg/mL
"Brc1ccc2[nH]cc(Sc3ccccc3)c2c1 [Compound 174AA, 5-bromo-3-(phenylthio)-1H-indole]",MIC,> 50 µg/mL
"Brc1ccc(Sc2c[nH]c3cc(Br)c(Br)cc23)cc1 [Compound 174AB, 5,6-dibromo-3-((4-bromophenyl)thio)-1H-indole]",MIC,> 50 µg/mL
"Clc1ccccc1Sc1c[nH]c2ccc(Br)cc12 [Compound 174AJ, 5-bromo-3-((2-chlorophenyl)thio)-1H-indole]",MIC,> 50 µg/mL
"Clc1cc2[nH]cc(Sc3ccc(Br)cc3)c2cc1Br [Compound 174AF, 5-bromo-3-((4-bromophenyl)thio)-6-chloro-1H-indole]",MIC,> 50 µg/mL
"Clc1ccc2[nH]cc(Sc3ccc(Br)cc3)c2c1 [Compound 174C, 3-((4-bromophenyl)thio)-5-chloro-1H-indole]",MIC,> 50 µg/mL
"[O-][S+](c1ccc(Br)cc1)c1c[nH]c2ccc(Br)cc12 (stereo not shown) [Compound 172I, 5-bromo-3-((4-bromophenyl)sulfinyl)-1H-indole]",MIC,> 40 µg/mL
"Oc1ccccc1Sc1c[nH]c2ccc(C(F)(F)F)cc12 [Compound 177A, 2-((5-(trifluoromethyl)-1H-indol-3-yl)thio)phenol]",MBC,> 50 µg/mL
same,MIC,25 µg/mL
"Brc1ccc(Sc2c[nH]c3c(Br)cccc23)cc1 [Compound 174H, 7-bromo-3-((4-bromophenyl)thio)-1H-indole]",MIC,> 50 µg/mL
"Brc1ccc2[nH]cc(Sc3ccc(-c4ccccc4)cc3)c2c1 [Compound 174R, 3-([1,1′-biphenyl]-4-ylthio)-5-bromo-1H-indole]",MIC,> 50 µg/mL
"COc1ccc(Sc2c[nH]c3ccc(Br)cc23)cc1 [Compound 174Q, 5-bromo-3-((4-methoxyphenyl)thio)-1H-indole]",MIC,> 50 µg/mL
"Fc1ccc2[nH]cc(Sc3ccccc3Br)c2c1 [Compound 177E, 3-((2-bromophenyl)thio)-5-fluoro-1H-indole]",MBC,> 50 µg/mL
same,MIC,> 50 µg/mL
"Brc1cccc(Sc2c[nH]c3ccc(Br)cc23)c1 [Compound 174N, 5-bromo-3-((3-bromophenyl)thio)-1H-indole]",MBC,> 150 µg/mL
"Brc1ccc2[nH]cc(Sc3c[nH]c4ccccc34)c2c1 [Compound 174AL, 3-((1H-indol-3-yl)thio)-5-bromo-1H-indole]",MIC,> 50 µg/mL
"Clc1ccc(Sc2c[nH]c3ccc(Br)cc23)c(Cl)c1 [Compound 174V, 5-bromo-3-((2,4-dichlorophenyl)thio)-1H-indole]",MIC,> 50 µg/mL
"Fc1ccc2c(Sc3ccc(Br)cc3)c[nH]c2c1 [Compound 172A, 3-((4-bromophenyl)thio)-6-fluoro-1H-indole]",MIC,> 50 µg/mL
"Brc1ccc2[nH]cc(Sc3cccc4ccccc34)c2c1 [Compound 174G, 5-bromo-3-(naphthalen-1-ylthio)-1H-indole]",MIC,> 50 µg/mL
"FC(F)(F)c1ccc2[nH]cc(Sc3ccccc3C(F)(F)F)c2c1 [Compound 177F, 5-(trifluoromethyl)-3-((2-(trifluoromethyl)phenyl)thio)-1H-indole]",MBC,> 50 µg/mL
same,MIC,6.25 µg/mL
"COC(=O)c1ccc2[nH]cc(Sc3ccc(Br)cc3)c2c1 [Compound 172G, methyl 3-((4-bromophenyl)thio)-1H-indole-5-carboxylate]",MIC,> 45 µg/mL
"Oc1ccc(Sc2c[nH]c3ccc(C(F)(F)F)cc23)cc1 [Compound 177B, 4-((5-(trifluoromethyl)-1H-indol-3-yl)thio)phenol]",MBC,> 50 µg/mL
same,MIC,25 µg/mL
"Brc1ccc2[nH]cc(SCc3ccccc3)c2c1 [Compound 174K, 3-(benzylthio)-5-bromo-1H-indole]",MIC,> 50 µg/mL
"Brc1ccc(CSc2c[nH]c3ccc(Br)cc23)cc1 [Compound 174O, 5-bromo-3-((4-bromobenzyl)thio)-1H-indole]",MIC,> 50 µg/mL
"Nc1cccc(Sc2c[nH]c3ccc(Br)cc23)c1 [Compound 174Y, 3-((5-bromo-1H-indol-3-yl)thio)aniline]",MIC,> 50 µg/mL
"Brc1ccc(Sc2[nH]c3ccccc3c2Sc2ccc(Br)cc2)cc1 [Compound 156P, 2,3-bis((4-bromophenyl)thio)-1H-indole]",MIC,> 50 µg/mL
"Brc1ccc(Sc2c[nH]c3cc(Br)cc(Br)c23)cc1 [Compound 174AE, 4,6-dibromo-3-((4-bromophenyl)thio)-1H-indole]",MIC,> 50 µg/mL
"Clc1cccc(Sc2c[nH]c3ccc(Br)cc23)c1Cl [Compound 174T, 5-bromo-3-((2,3-dichlorophenyl)thio)-1H-indole]",MIC,> 50 µg/mL
"Nc1ccc(Sc2c[nH]c3ccc(Br)cc23)cc1 [Compound 174Z, 4-((5-bromo-1H-indol-3-yl)thio)aniline]",MIC,> 50 µg/mL
"CCc1ccccc1Sc1c[nH]c2ccc(C(F)(F)F)cc12 [Compound 177G, 3-((2-ethylphenyl)thio)-5-(trifluoromethyl)-1H-indole]",MBC,> 50 µg/mL
same,MIC,> 50 µg/mL
"O=S(=O)(c1ccc(Br)cc1)c1c[nH]c2ccc(Br)cc12 [Compound 172J, 5-bromo-3-((4-bromophenyl)sulfonyl)-1H-indole]",MIC,> 50 µg/mL
"Brc1ccc2[nH]cc(Sc3cc(Br)c(Br)c(Br)c3)c2c1 [Compound 174AH, 5-bromo-3-((3,4,5-tribromophenyl)thio)-1H-indole]",MIC,> 50 µg/mL
"Nc1ccccc1Sc1c[nH]c2ccc(C(F)(F)F)cc12 [Compound 177C, 2-((5-(trifluoromethyl)-1H-indol-3-yl)thio)aniline]",MBC,> 50 µg/mL
same,MIC,> 50 µg/mL
"Brc1ccc(Sc2c[nH]c3c(Br)cc(Br)cc23)cc1 [Compound 174AC, 5,7-dibromo-3-((4-bromophenyl)thio)-1H-indole]",MIC,> 50 µg/mL
"Cc1[nH]c2ccccc2c1Sc1ccc(Br)cc1 [Compound 172C, 3-((4-bromophenyl)thio)-2-methyl-1H-indole]",MIC,> 50 µg/mL
"Nc1cc(Br)ccc1Sc1c[nH]c2ccc(Br)cc12 [Compound 174X, 5-bromo-2-((5-bromo-1H-indol-3-yl)thio)aniline]",MIC,> 50 µg/mL
"Brc1ccc(Sc2c[nH]c3ccc(Br)cc23)cc1 [Compound 172D, 5-bromo-3-((4-bromophenyl)thio)-1H-indole]",MBC,> 150 µg/mL
same,MIC,100 µg/mL
"Clc1c(Cl)c(Cl)c(Sc2c[nH]c3ccc(Br)cc23)c(Cl)c1Cl [Compound 174AD, 5-bromo-3-((perchlorophenyl)thio)-1H-indole]",MIC,> 50 µg/mL
"Fc1ccccc1Sc1c[nH]c2ccc(C(F)(F)F)cc12 [Compound 177D, 3-((2-fluorophenyl)thio)-5-(trifluoromethyl)-1H-indole]",MBC,> 50 µg/mL
same,MIC,12.5 µg/mL
"Brc1ccc(Sc2c[nH]c3cccc(Br)c23)cc1 [Compound 174D, 4-bromo-3-((4-bromophenyl)thio)-1H-indole]",MIC,> 50 µg/mL
"Brc1ccc2[nH]cc(Sc3nc4ccccc4s3)c2c1 [Compound 174L, 2-((5-bromo-1H-indol-3-yl)thio)benzo[d]thiazole]",MIC,> 50 µg/mL
"Oc1ccc(Sc2c[nH]c3ccccc23)cc1 [Compound 156I, 4-((1H-indol-3-yl)thio)phenol]",MBC,> 150 µg/mL
same,MIC,> 50 µg/mL
